Test results from ChEMBL document CHEMBL1961873, “Compounds: GSK PKIS; Assays: Nanosyn kinase panel” (2012).
For some of these results: This list holds what a sample rich in strong results left over. Only a part is listed here, and it is no random draw.

Biological target: T1, Cytoplasmic tyrosine-protein kinase BMX (Homo sapiens) (UniProt P51813)
T1 sequence (whole entry): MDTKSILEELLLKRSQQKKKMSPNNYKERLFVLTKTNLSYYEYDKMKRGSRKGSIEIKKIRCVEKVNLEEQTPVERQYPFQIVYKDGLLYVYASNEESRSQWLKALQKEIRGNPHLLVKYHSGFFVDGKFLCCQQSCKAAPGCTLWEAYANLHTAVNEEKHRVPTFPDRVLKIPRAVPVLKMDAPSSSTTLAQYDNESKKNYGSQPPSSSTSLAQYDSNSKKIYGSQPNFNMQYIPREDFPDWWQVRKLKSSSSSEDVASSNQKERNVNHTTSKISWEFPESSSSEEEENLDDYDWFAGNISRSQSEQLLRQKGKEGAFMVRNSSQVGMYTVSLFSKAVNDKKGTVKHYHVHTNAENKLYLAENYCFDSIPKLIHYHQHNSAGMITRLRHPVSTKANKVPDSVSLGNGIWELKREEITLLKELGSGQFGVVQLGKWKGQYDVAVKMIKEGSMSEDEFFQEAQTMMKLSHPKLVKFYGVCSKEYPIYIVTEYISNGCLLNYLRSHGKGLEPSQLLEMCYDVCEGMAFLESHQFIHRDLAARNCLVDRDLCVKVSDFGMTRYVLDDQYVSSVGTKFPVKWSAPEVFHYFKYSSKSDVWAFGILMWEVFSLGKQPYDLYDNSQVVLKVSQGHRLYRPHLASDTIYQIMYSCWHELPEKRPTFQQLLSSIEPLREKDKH
Settings: at 0.1 µM

Compound | inhibition
O=C1NC(=O)C(c2ccccc2)=C1Nc1ccccc1 | -0.65%
CS(=O)(=O)c1ccc(Oc2nccc(-c3c(-c4ccc(F)cc4)ncn3C3CCNCC3)n2)cc1 | 4.47%
Fc1ccc(Oc2nccc(-c3c(-c4ccc(F)cc4)ncn3C3CCNCC3)n2)cc1 | 3.71%
Cc1cccc(Oc2nccc(-c3c(-c4ccc(F)cc4)ncn3C3CCNCC3)n2)c1C | 3.46%
COc1ccccc1Oc1nccc(-c2c(-c3ccc(F)cc3)ncn2C2CCNCC2)n1 | 3.59%
O=C1NC(=O)C(c2cccc([N+](=O)[O-])c2)=C1Nc1cc(Cl)c(O)c(Cl)c1 | 1.71%
NC(=O)CCc1ccccc1Oc1nccc(-c2c(-c3ccc(F)cc3)ncn2C2CCNCC2)n1 | -1.3%
Fc1ccc(-c2ncn(C3CCNCC3)c2-c2ccnc(Oc3cccc(C(F)(F)F)c3)n2)cc1 | 5.27%
CC(C)(C)c1ccc(Oc2nccc(-c3c(-c4ccc(F)cc4)ncn3C3CCNCC3)n2)cc1 | 3.34%
Fc1ccc(-c2ncn(C3CCNCC3)c2-c2ccnc(Oc3ccc(Cl)cc3)n2)cc1 | 0.19%
Fc1ccc(-c2ncn(C3CCNCC3)c2-c2ccnc(Oc3cccc(F)c3)n2)cc1 | 3.89%
O=C(O)c1ccc(Oc2nccc(-c3c(-c4ccc(F)cc4)ncn3C3CCNCC3)n2)cc1 | 3.58%
O=C1NC(=O)C(c2ccccc2Cl)=C1Nc1cc(Cl)c(O)c(Cl)c1 | -1.65%
COc1ccccc1C1=C(Nc2ccccc2)C(=O)NC1=O | -0.78%

Biological target: T1, Cytoplasmic tyrosine-protein kinase BMX (Homo sapiens)
Settings: at 1 µM

Compound | inhibition
O=C1NC(=O)C(c2ccccc2)=C1Nc1ccccc1 | 4.27%
CS(=O)(=O)c1ccc(Oc2nccc(-c3c(-c4ccc(F)cc4)ncn3C3CCNCC3)n2)cc1 | 3.37%
Fc1ccc(Oc2nccc(-c3c(-c4ccc(F)cc4)ncn3C3CCNCC3)n2)cc1 | 7.33%
Cc1cccc(Oc2nccc(-c3c(-c4ccc(F)cc4)ncn3C3CCNCC3)n2)c1C | 3.1%
COc1ccccc1Oc1nccc(-c2c(-c3ccc(F)cc3)ncn2C2CCNCC2)n1 | 5.8%
O=C1NC(=O)C(c2cccc([N+](=O)[O-])c2)=C1Nc1cc(Cl)c(O)c(Cl)c1 | 0.42%
NC(=O)CCc1ccccc1Oc1nccc(-c2c(-c3ccc(F)cc3)ncn2C2CCNCC2)n1 | 0.07%
Fc1ccc(-c2ncn(C3CCNCC3)c2-c2ccnc(Oc3cccc(C(F)(F)F)c3)n2)cc1 | 4.97%
CC(C)(C)c1ccc(Oc2nccc(-c3c(-c4ccc(F)cc4)ncn3C3CCNCC3)n2)cc1 | 3.63%
Fc1ccc(-c2ncn(C3CCNCC3)c2-c2ccnc(Oc3ccc(Cl)cc3)n2)cc1 | 1.7%
Fc1ccc(-c2ncn(C3CCNCC3)c2-c2ccnc(Oc3cccc(F)c3)n2)cc1 | 6.47%
O=C(O)c1ccc(Oc2nccc(-c3c(-c4ccc(F)cc4)ncn3C3CCNCC3)n2)cc1 | 6.96%
O=C1NC(=O)C(c2ccccc2Cl)=C1Nc1cc(Cl)c(O)c(Cl)c1 | 5.49%
COc1ccccc1C1=C(Nc2ccccc2)C(=O)NC1=O | 3.52%

Biological target: Protein-tyrosine kinase 6 (Homo sapiens) (UniProt Q13882)
Settings: at 0.1 µM

Compound | inhibition
O=C1NC(=O)C(c2ccccc2)=C1Nc1ccccc1 | 5.31%
CS(=O)(=O)c1ccc(Oc2nccc(-c3c(-c4ccc(F)cc4)ncn3C3CCNCC3)n2)cc1 | 4.09%
Fc1ccc(Oc2nccc(-c3c(-c4ccc(F)cc4)ncn3C3CCNCC3)n2)cc1 | 3.52%
Cc1cccc(Oc2nccc(-c3c(-c4ccc(F)cc4)ncn3C3CCNCC3)n2)c1C | 0.87%
COc1ccccc1Oc1nccc(-c2c(-c3ccc(F)cc3)ncn2C2CCNCC2)n1 | 2.68%
O=C1NC(=O)C(c2cccc([N+](=O)[O-])c2)=C1Nc1cc(Cl)c(O)c(Cl)c1 | 1.7%
NC(=O)CCc1ccccc1Oc1nccc(-c2c(-c3ccc(F)cc3)ncn2C2CCNCC2)n1 | 0.32%
Fc1ccc(-c2ncn(C3CCNCC3)c2-c2ccnc(Oc3cccc(C(F)(F)F)c3)n2)cc1 | 5.49%
CC(C)(C)c1ccc(Oc2nccc(-c3c(-c4ccc(F)cc4)ncn3C3CCNCC3)n2)cc1 | 4.36%
Fc1ccc(-c2ncn(C3CCNCC3)c2-c2ccnc(Oc3ccc(Cl)cc3)n2)cc1 | 2.34%
Fc1ccc(-c2ncn(C3CCNCC3)c2-c2ccnc(Oc3cccc(F)c3)n2)cc1 | 4.75%
O=C(O)c1ccc(Oc2nccc(-c3c(-c4ccc(F)cc4)ncn3C3CCNCC3)n2)cc1 | 1.43%
O=C1NC(=O)C(c2ccccc2Cl)=C1Nc1cc(Cl)c(O)c(Cl)c1 | 3.24%
COc1ccccc1C1=C(Nc2ccccc2)C(=O)NC1=O | 1.85%

Biological target: Protein-tyrosine kinase 6 (Homo sapiens) (UniProt Q13882)
Settings: at 1 µM

Compound | inhibition
O=C1NC(=O)C(c2ccccc2)=C1Nc1ccccc1 | 7.17%
CS(=O)(=O)c1ccc(Oc2nccc(-c3c(-c4ccc(F)cc4)ncn3C3CCNCC3)n2)cc1 | 5.67%
Fc1ccc(Oc2nccc(-c3c(-c4ccc(F)cc4)ncn3C3CCNCC3)n2)cc1 | 3.45%
Cc1cccc(Oc2nccc(-c3c(-c4ccc(F)cc4)ncn3C3CCNCC3)n2)c1C | 4.02%
O=C1NC(=O)C(c2cccc([N+](=O)[O-])c2)=C1Nc1cc(Cl)c(O)c(Cl)c1 | 2.07%
NC(=O)CCc1ccccc1Oc1nccc(-c2c(-c3ccc(F)cc3)ncn2C2CCNCC2)n1 | -1.18%
Fc1ccc(-c2ncn(C3CCNCC3)c2-c2ccnc(Oc3cccc(C(F)(F)F)c3)n2)cc1 | 7.39%
CC(C)(C)c1ccc(Oc2nccc(-c3c(-c4ccc(F)cc4)ncn3C3CCNCC3)n2)cc1 | 4.11%
Fc1ccc(-c2ncn(C3CCNCC3)c2-c2ccnc(Oc3ccc(Cl)cc3)n2)cc1 | 1.01%
Fc1ccc(-c2ncn(C3CCNCC3)c2-c2ccnc(Oc3cccc(F)c3)n2)cc1 | 4.97%
O=C(O)c1ccc(Oc2nccc(-c3c(-c4ccc(F)cc4)ncn3C3CCNCC3)n2)cc1 | 1.47%
O=C1NC(=O)C(c2ccccc2Cl)=C1Nc1cc(Cl)c(O)c(Cl)c1 | 3.13%
COc1ccccc1C1=C(Nc2ccccc2)C(=O)NC1=O | 3.7%
